{"source": "the supplement of paper PMC8728848", "experiment_in_all_cases": "glycan array binding signal (z-score within array); higher = stronger binding", "conditions_in_all_cases": "glycan notation: IUPAC condensed, linker removed", "key": {"[1]": {"biological_target": "Neu5Ac(a2-6)GlcNAc(b1-4)GlcNAc(b1-4)GlcNAc", "in_short": "(§1)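 Glycan array binding is given as a within-array Z-score, which can be read as non-binding when negative. The arrays, 3228 of them, came from the Consortium for Functional Glycomics database and were retained only where the protein sequence was available. Z-scores were averaged across arrays of the same protein sequence at different concentrations or buffers and across linkers.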"}, "[2]": {"biological_target": "Neu5Ac(a2-8)Neu5Ac", "in_short": "as §1"}, "[3]": {"biological_target": "Neu5Ac(a2-8)Neu5Ac(a2-3)Gal(b1-3)GalNAc(b1-4)[Neu5Ac(a2-3)]Gal(b1-4)Glc", "in_short": "as §1"}, "[4]": {"biological_target": "Neu5Ac(a2-8)Neu5Ac(a2-3)Gal(b1-3)GalNAc(b1-4)[Neu5Ac(a2-8)Neu5Ac(a2-3)]Gal(b1-4)Glc", "in_short": "as §1"}, "[5]": {"biological_target": "Neu5Ac(a2-8)Neu5Ac(a2-3)Gal(b1-4)Glc", "in_short": "as §1"}, "[6]": {"biological_target": "Neu5Ac(a2-8)Neu5Ac(a2-3)Gal(b1-4)GlcNAc", "in_short": "as §1"}, "[7]": {"biological_target": "Neu5Ac(a2-8)Neu5Ac(a2-3)[Gal(b1-3)GalNAc(b1-4)]Gal(b1-4)Glc", "in_short": "as §1"}, "[8]": {"biological_target": "Neu5Ac(a2-8)Neu5Ac(a2-3)[GalNAc(b1-4)]Gal(b1-4)Glc", "in_short": "as §1"}, "[9]": {"biological_target": "Neu5Ac(a2-8)Neu5Ac(a2-8)Neu5Ac", "in_short": "as §1"}, "[10]": {"biological_target": "Neu5Ac(a2-8)Neu5Ac(a2-8)Neu5Ac(a2-3)Gal(b1-4)Glc", "in_short": "as §1"}, "[11]": {"biological_target": "Neu5Ac(a2-8)Neu5Ac(a2-8)Neu5Ac(a2-3)[Gal(b1-3)GalNAc(b1-4)]Gal(b1-4)Glc", "in_short": "as §1"}, "[12]": {"biological_target": "Neu5Ac(a2-8)Neu5Ac(a2-8)Neu5Ac(a2-3)[GalNAc(b1-4)]Gal(b1-4)Glc", "in_short": "as §1"}, "[13]": {"biological_target": "Neu5Ac(a2-8)Neu5Ac(a2-8)Neu5Ac(a2-8)Neu5Ac(a2-3)[GalNAc(b1-4)]Gal(b1-4)Glc", "in_short": "as §1"}, "[14]": {"biological_target": "Neu5Ac(a2-8)Neu5Gc(a2-3)Gal(b1-4)GlcNAc", "in_short": "as §1"}, "[15]": {"biological_target": "Neu5Ac(b2-6)Gal(b1-4)GlcNAc", "in_short": "as §1"}, "[16]": {"biological_target": "Neu5Ac(b2-6)GalNAc", "in_short": "as §1"}, "[17]": {"biological_target": "Neu5Ac9Ac(a2-3)Gal(b1-3)GlcNAc", "in_short": "as §1"}, "[18]": {"biological_target": "Neu5Ac9Ac(a2-3)Gal(b1-4)GlcNAc", "in_short": "as §1"}, "[19]": {"biological_target": "Neu5Ac9Ac(a2-6)Gal(b1-4)GlcNAc", "in_short": "as §1"}, "[20]": {"biological_target": "Neu5Gc(a2-3)Gal(b1-3)GlcNAc", "in_short": "as §1"}, "[21]": {"biological_target": "Neu5Gc(a2-3)Gal(b1-3)[Fuc(a1-4)]GlcNAc", "in_short": "as §1"}, "[22]": {"biological_target": "Neu5Gc(a2-3)Gal(b1-4)Glc", "in_short": "as §1"}, "[23]": {"biological_target": "Neu5Gc(a2-3)Gal(b1-4)GlcNAc", "in_short": "as §1"}, "[24]": {"biological_target": "Neu5Gc(a2-3)Gal(b1-4)GlcNAc(b1-3)Gal(b1-4)GlcNAc(b1-2)Man(a1-3)[Neu5Gc(a2-3)Gal(b1-4)GlcNAc(b1-3)Gal(b1-4)GlcNAc(b1-2)Man(a1-6)]Man(b1-4)GlcNAc(b1-4)GlcNAc", "in_short": "as §1"}, "[25]": {"biological_target": "Neu5Gc(a2-3)Gal(b1-4)[Fuc(a1-3)]GlcNAc", "in_short": "as §1"}, "[26]": {"biological_target": "Neu5Gc(a2-6)Gal(b1-4)GlcNAc", "in_short": "as §1"}, "[27]": {"biological_target": "Neu5Gc(a2-6)GalNAc", "in_short": "as §1"}, "[28]": {"biological_target": "Neu5Gc(a2-8)Neu5Ac(a2-3)Gal(b1-4)GlcNAc", "in_short": "as §1"}, "[29]": {"biological_target": "Neu5Gc(a2-8)Neu5Gc(a2-3)Gal(b1-4)GlcNAc", "in_short": "as §1"}, "[30]": {"biological_target": "Neu5Gc(a2-8)Neu5Gc(a2-3)Gal(b1-4)GlcNAc(b1-3)Gal(b1-4)GlcNAc", "in_short": "as §1"}, "[31]": {"biological_target": "Neu5Gc(a2-8)Neu5Gc(a2-6)Gal(b1-4)GlcNAc", "in_short": "as §1"}, "[32]": {"biological_target": "Neu5Gc(b2-6)Gal(b1-4)GlcNAc", "in_short": "as §1"}}, "note": "Some of the results follow."}
{"binder": "GS7807E-bfa-538-23-538 (Bacteroides fragilis) (protein) TDSFESFNTNEAGFDNDSKKQDFNYYGIPLGIIQQGIYFNYDWGSGKNWPFQTMQNLGADLFSGYVHDFNPFNEGKNNSTYYMMDGWNGSTWDNTYGYIMPEVQKSETINEKDNIGFFGITKILKVELMHRLSDLYGPIVYTQFGSKTGSTPDTQQEAYKAFFNDLDTGIAKIREYQKANPDIESFAKFDILMPQGKRTFSEWIRFANSLRLRLAVRIAMADSKLAVAEAQKALTDEEGLLEGNDEVVAVSTSSGYTNPFGEINKAWGEVFMNANMESLLVGYEDPRMEKYFDKATGSDATSLIDYKGTYKGIRQGTGFSHKNYNGHSKSTITQQTDAVLMTPAEVWFLRAEAALRGWSSESVKDCYEKGVKASFAQWGAAGAEAYLESDRKPSDYVDAFKAANNVKAVNTLTPKWDDAAGNEDKLGRIITQKWLAMFPEGGEAWAEQRRTGYPRLFPVLVNQSEGTVDTNLGPRRLNFFVGIKTTNPEQYTQLVNALGGIDNCGTRLWWDTGRNF", "values": [{"measurement": "glycan array binding signal (z-score)", "setting": "[1]", "result": -0.677}, {"measurement": "glycan array binding signal (z-score)", "setting": "[2]", "result": -0.676}, {"measurement": "glycan array binding signal (z-score)", "setting": "[3]", "result": -0.624}, {"measurement": "glycan array binding signal (z-score)", "setting": "[4]", "result": 0.733}, {"measurement": "glycan array binding signal (z-score)", "setting": "[5]", "result": -0.715}, {"measurement": "glycan array binding signal (z-score)", "setting": "[6]", "result": -0.696}, {"measurement": "glycan array binding signal (z-score)", "setting": "[7]", "result": 0.075}, {"measurement": "glycan array binding signal (z-score)", "setting": "[8]", "result": 1.11}, {"measurement": "glycan array binding signal (z-score)", "setting": "[9]", "result": -0.676}, {"measurement": "glycan array binding signal (z-score)", "setting": "[10]", "result": -0.645}, {"measurement": "glycan array binding signal (z-score)", "setting": "[11]", "result": -0.539}, {"measurement": "glycan array binding signal (z-score)", "setting": "[12]", "result": 2.93}, {"measurement": "glycan array binding signal (z-score)", "setting": "[13]", "result": 1.08}, {"measurement": "glycan array binding signal (z-score)", "setting": "[14]", "result": -0.699}, {"measurement": "glycan array binding signal (z-score)", "setting": "[15]", "result": -0.415}, {"measurement": "glycan array binding signal (z-score)", "setting": "[16]", "result": -0.67}, {"measurement": "glycan array binding signal (z-score)", "setting": "[17]", "result": -0.695}, {"measurement": "glycan array binding signal (z-score)", "setting": "[18]", "result": -0.718}, {"measurement": "glycan array binding signal (z-score)", "setting": "[19]", "result": -0.392}, {"measurement": "glycan array binding signal (z-score)", "setting": "[20]", "result": -0.705}, {"measurement": "glycan array binding signal (z-score)", "setting": "[21]", "result": -0.681}, {"measurement": "glycan array binding signal (z-score)", "setting": "[22]", "result": -0.692}, {"measurement": "glycan array binding signal (z-score)", "setting": "[23]", "result": -0.662}, {"measurement": "glycan array binding signal (z-score)", "setting": "[24]", "result": -0.632}, {"measurement": "glycan array binding signal (z-score)", "setting": "[25]", "result": -0.501}, {"measurement": "glycan array binding signal (z-score)", "setting": "[26]", "result": -0.682}, {"measurement": "glycan array binding signal (z-score)", "setting": "[27]", "result": 0.238}, {"measurement": "glycan array binding signal (z-score)", "setting": "[28]", "result": -0.59}, {"measurement": "glycan array binding signal (z-score)", "setting": "[29]", "result": -0.696}, {"measurement": "glycan array binding signal (z-score)", "setting": "[30]", "result": -0.206}, {"measurement": "glycan array binding signal (z-score)", "setting": "[31]", "result": -0.401}, {"measurement": "glycan array binding signal (z-score)", "setting": "[32]", "result": 1.98}]}
